From ChEMBL document CHEMBL4888484, “Replenishing the malaria drug discovery pipeline: Screening and hit evaluation of the MMV Hit Generation Library 1 (HGL1) against asexual blood stage Plasmodium falciparum ,using a nano luciferase reporter read-out” (2022)
Hit rate of the full screen: of about 150,000 compounds, about 540 (0.36%) showed an effect of 50% or more. This is one part of the list.

These compounds were tested on Plasmodium falciparum (assay: Primary screen in NF54 nanoGlo assay, in single point, at 2uM, 72h; a lower Z score goes with more inhibition). Details: timepoint 72 hour.
Format: functional, Erythrocyte

| Structure (SMILES) | % Inhibition [%] | Z score |
| --- | --- | --- |
| COc1ccc(C(=O)N2C[C@H]3CC[C@@H](C2)N(CC2CC2)C3=O)c(OC)c1 | -4 | 0.5 |
| CC[C@@H](CNc1ccc(C(N)=O)nn1)Oc1cccc(F)c1 | -7 | 0.75 |
| COCCN1CC[C@@]2(CCC1=O)CN(c1ccc(C(C)=O)cn1)CCN2C | -6 | 0.87 |
| COc1cncc(O[C@H]2CCN(S(=O)(=O)c3ccc(OC)c(OC)c3)C2)n1 | -8 | 0.89 |
| Cc1ccc(Oc2nc(N3CCC(C)CC3)nc3c2CN(C(=O)c2cccc(C#N)c2)CC3)cc1 | -9 | 1.37 |
| COC(=O)[C@@H](c1cccc(O)c1)N(C)Cc1nnnn1C(C)(C)C | -11 | 0.97 |
| CCc1[nH]nc(NC(=O)[C@H]2CC(=O)N(c3ccccc3)C2)c1C | -7 | 0.6 |
| Cc1cccc(C(C)(C)CN[C@H]2CCCS(=O)(=O)C2)c1 | -14 | 2.07 |
| Nc1[nH]cnc2nc(N3CCN(C(=O)c4ccccc4)CC3)nc1-2 | -15 | 2.79 |
| CO[C@@H]1CO[C@H]2[C@@H]1OC[C@@H]2Nc1nccc(-c2ccc3c(c2)OCO3)n1 | -2 | 0.19 |
| CC[C@]1(O)CCN(C(=O)c2nn(-c3cccc(F)c3)c3c2CCCC3)C1 | -9 | 1.01 |
| FC(F)(F)c1ccc(NCC2(n3cccn3)CC2)nn1 | 5 | -0.74 |
| O=c1c2cnccc2ncn1CC1(CO)CCC1 | -1 | 0.19 |
| CCN1CCCN(C(=O)CCc2c[nH]c3ccccc23)CC1=O | 4 | -0.39 |
| O=C(CCc1nc(-c2ccc(S(=O)(=O)N3CCOCC3)cc2)no1)Nc1nccs1 | -3 | 0.41 |
| C[C@H](NCCOc1ccccc1Cl)C1CCS(=O)(=O)CC1 | -7 | 0.78 |
| N[C@H]1C[C@H](c2cc(N3CCN(Cc4cccs4)CC3)nc(C3CC3)n2)C1 | 4 | -0.7 |
| O=C(Nc1ccc(C2CC2)c(F)c1)N1CCN(C(=O)c2cccc(F)c2)CC1 | -8 | 0.98 |
| Fc1cccc(-c2n[nH]cc2-c2nc3c(cnn3Cc3cccs3)[nH]2)c1 | -11 | 1.57 |
| Cc1n[nH]c(C)c1CNC(=O)c1cc2c(s1)N(C)CCCC2 | -9 | 1.32 |
| O=C(NCc1cccc(N2CCCC2)c1)[C@H]1CCC(=O)N(C2CCCCCC2)C1 | -12 | 1.38 |

| Structure (SMILES) | % Inhibition [%] | Z score |
| --- | --- | --- |
| COCc1ccc(C2CCCN2Cc2ncc(C(C)O)s2)o1 (stereo not drawn) | -1 | 0.09 |
| Cc1ccsc1CN(C)C(=O)c1ccc(-n2cnnc2)nc1 | 6 | -0.85 |
| CCC(=O)N(CC)Cc1nn(-c2ccccc2)c2c1CN(Cc1cc(F)ccc1F)CC2 | -9 | 0.98 |
| Cc1c(NC(=O)N2CCC[C@H](CO)C2)cccc1-c1nncn1C | -13 | 1.88 |
| Cc1cc(S(=O)(=O)NC2CCCCC2)c(C)s1 | 6 | -0.8 |
| O=C(Nc1cc(-c2ccccc2)ns1)C1CCC1 | 10 | -1.15 |
| C[C@@H]1CN(c2ccc(Cl)c(C(=O)O)n2)C[C@]1(C)O | -6 | 1.22 |
| COc1ccc(Cn2c(=O)c3ccnn3c3ccc(C(=O)NC4CCN(C)CC4)cc32)cc1 | 22 | -2.4 |
| CC(C)(C)c1nc(CN2C(=O)NC3(CCCCC3)C2=O)no1 | 1 | -0.21 |
| O=C(NCC1CCOCC1)c1ccc2c(c1)OCO2 | -4 | 0.68 |
| O=C(Nc1nccs1)c1cnc(-c2cccnc2)s1 | -1 | 0.14 |
| CC(C)c1nnc(CN(C(C)C)C2CCOCC2)o1 | -7 | 0.74 |
| C[C@@H](CNS(=O)(=O)C1CC1)N1CCCCC1=O | -9 | 1.23 |
| Cc1cc(C)n([C@@H](C)CNC(=O)Cn2cccnc2=O)n1 | -6 | 1.19 |
| CC(C)Oc1ccc(CNc2nc3ccncc3n(C(C)C)c2=O)cc1 | -12 | 1.15 |
| COc1ccc(-c2nc3c([nH]2)CCN(C(=O)c2cc(C)on2)C3)cn1 | -2 | 0.46 |
| O=C(Cc1ccc(Cl)cc1)Nc1nnn[nH]1 | 13 | -1.61 |
| CC(C)c1nccc(NCC(=O)OC2CCCCC2)n1 | -6 | 0.77 |
| Cc1oc(-c2ccoc2)nc1CN(CC1CC1)C[C@H]1CCCO1 | 12 | -1.55 |
| Cc1ccccc1C(CC(=O)NCC(C)C)c1cnc2n1C(C)CCC2 (stereo not drawn) | 4 | -0.59 |
| CCN(CCO)C(=O)CCCC1CCCCC1 | 8 | -0.8 |

| Structure (SMILES) | % Inhibition [%] | Z score |
| --- | --- | --- |
| O=C(NCCOC1CCCC1)N[C@H]1CCCc2ccc(F)cc21 | -7 | 1.04 |
| COC1CCCC(c2nc(-c3cnc(C)nc3N)no2)C1 (stereo not drawn) | -9 | 1.44 |
| Cc1cn2nc(-c3nc([C@H]4CCCN(C(=O)c5cccc(Cl)c5)C4)no3)cc2c(=O)[nH]1 | 10 | -1.87 |
| CCN1C(=O)Cc2cc(NC(=O)[C@@H]3CCCO3)ccc21 | -14 | 1.56 |
| C[C@@H](CCCC(C)(C)O)Nc1nc(-c2ccccn2)nc2c1cnn2C | -7 | 1.41 |
| C[C@@H](CCNC(=O)CC1CCN(S(=O)(=O)c2ccccc2)CC1)N1CCCCCC1 | -6 | 1.05 |
| Cc1nn(C)c(C)c1C1OCCC1CNCc1cccs1 (stereo not drawn) | -3 | 0.36 |
| COc1ccc2c(=O)n(C[C@H]3COCCO3)ccc2c1OC | -6 | 0.63 |
| Cc1nccn1-c1ccnc(C(=O)N2CCN(C)C[C@@H]2C)c1 | 2 | -0.15 |
| CN1C(=O)N[C@@H]2CN(c3ncc(Cl)cc3Br)CC[C@@H]21 | -14 | 1.91 |
| CN(Cc1ccccc1)[C@H]1CCCN(C(=O)c2ccc3c(c2)no[n+]3[O-])C1 | -12 | 1.66 |
| Cn1nc(CC(C)(C)C)cc1NC(=O)c1ccc(N2CCCC2)nc1 | -15 | 2.2 |
| Cc1nn(-c2ccc(F)cc2)c2nc(N3CCCN(C(=O)[C@H](C)c4ccccc4)CC3)sc12 | -15 | 1.67 |
| O=C(CCc1cccc(Cl)c1)N1CC[C@H](Oc2cccnn2)C1 | -13 | 1.54 |
| CN(C)S(=O)(=O)c1ccc(C(=O)N2Cc3cncnc3C2)cc1 | -5 | 0.7 |
| COc1ccccc1C(NC(=O)N1CCCC1CCO)c1ccccc1Cl (stereo not drawn) | -2 | 0.49 |
| Cc1n[nH]cc1CNc1cnc2ccccc2c1 | 1 | -0.16 |
| Cn1nccc1CNCc1ccc(Oc2ccccc2)o1 | -8 | 1.02 |
| CS(=O)(=O)NCCC(=O)N[C@H]1CC[C@@H](C(=O)NCc2ccccc2F)C1 | -6 | 0.81 |
| O=C1C[C@H](N2CCN(Cc3ccc4c(c3)OCO4)CC2)C(=O)N1C1CC1 | 3 | -0.43 |
| Cc1nnnn1-c1ccc(C(=O)N[C@H]2CCCOC2)c(F)c1 | 3 | -0.56 |

| Structure (SMILES) | % Inhibition [%] | Z score |
| --- | --- | --- |
| CC[C@H](NC(=O)c1[nH]nnc1-c1ccc(F)cc1)c1cccs1 | -4 | 0.69 |
| Cc1noc([C@H]2CCCN(C(=O)c3ncccc3OCC(F)(F)F)C2)n1 | -6 | 0.97 |
| CCS(=O)(=O)NC[C@H](C)NCc1cccc(CO)c1 | -11 | 1.34 |
| CN1CCN(Cc2ccc3c4c(cccc24)C(=O)OC3)C[C@H]1c1ccccc1 | -7 | 1.25 |
| O=C(NC[C@@H](c1ccco1)N1CCCC1)c1ccc(Br)o1 | -1 | 0.17 |
| C[C@@H](Cc1nc(-c2cc(Cl)sc2Cl)cs1)n1cc(Cl)cn1 | -8 | 0.87 |
| Cc1cc(C)cc(CCC(=O)NCc2nccc(N)n2)c1 | -6 | 0.7 |
| CCC1CN(C(=O)NC2CCCCC2CC)CC(C)O1 (stereo not drawn) | -10 | 1.54 |
| CC1(C)CO[C@H](c2cccc(Cl)c2)CN1C(=O)CN1CCC(=O)NC1=O | -9 | 1.53 |
| Cc1ccsc1CN(Cc1ccc(F)cc1)C(=O)CN(C[C@H]1CCCO1)C(=O)Nc1ccc(Cl)cc1 | -10 | 1.26 |
| CC1CCCN(C(C)CNC(=O)CCNC(=O)C2CC2C)C1 (stereo not drawn) | -5 | 0.79 |
| CCN1[C@H](c2ccc(Br)cc2)CCS1(=O)=O | -7 | 1.32 |
| COCCO[C@H]1CN(C2CCN(C(=O)c3cc(C)nn3C)CC2)C12CCCCC2 | -10 | 1.85 |
| Cc1ccc(-c2nc(C)c(C(=O)NC[C@H](C)N3CCc4ccccc43)s2)o1 | -13 | 2.53 |
| COc1cc(NC(=O)COc2ccccc2F)ccc1N1CCCCC1=O | -16 | 2.52 |
| Cc1ccc(Cc2nc(CCCNC(=O)OC(C)(C)C)no2)cn1 | -15 | 2.59 |
| Cc1c(S(=O)(=O)N2CCC(C)CC2)c(C)n(C)c1C(=O)N1CCOCC1 | -16 | 2.15 |
| O[C@]1(c2ccc(-c3ccccc3)cc2)C[N+]2=C(CCCCC2)N1c1ccc2c(c1)OCO2 | -2 | 0.19 |
| Cc1nccc(-c2ccc(NC(=O)Cc3cccc4ccccc34)cc2)n1 | 2 | -0.22 |
| O=C(NCc1ccccc1)c1cc(-c2cccc(F)c2)ns1 | -3 | 0.36 |
| C[C@H](NC(=O)Nc1cccc2c1OC(C)(C)C2)c1nccs1 | -8 | 1.03 |
